Assay results published in the supplement of paper PMC3334620.
Whole data set: some 33,000 sequences, median “E-score (-0.5 to 0.5)” near -0.041, cut for the highest 2% near 0.37. The list shows a part of the results.

What follows are sequences tested against T1, Ecm22 (UniProt Q05958) (assay: PBM E-score (8-mer binding enrichment) (E-score (-0.5 to 0.5)); higher = stronger / more preferred TF binding; most listed sequences are background and not binding sites). Conditions: protein concentration: 200 nM; construct: GST-full length.
T1 sequence: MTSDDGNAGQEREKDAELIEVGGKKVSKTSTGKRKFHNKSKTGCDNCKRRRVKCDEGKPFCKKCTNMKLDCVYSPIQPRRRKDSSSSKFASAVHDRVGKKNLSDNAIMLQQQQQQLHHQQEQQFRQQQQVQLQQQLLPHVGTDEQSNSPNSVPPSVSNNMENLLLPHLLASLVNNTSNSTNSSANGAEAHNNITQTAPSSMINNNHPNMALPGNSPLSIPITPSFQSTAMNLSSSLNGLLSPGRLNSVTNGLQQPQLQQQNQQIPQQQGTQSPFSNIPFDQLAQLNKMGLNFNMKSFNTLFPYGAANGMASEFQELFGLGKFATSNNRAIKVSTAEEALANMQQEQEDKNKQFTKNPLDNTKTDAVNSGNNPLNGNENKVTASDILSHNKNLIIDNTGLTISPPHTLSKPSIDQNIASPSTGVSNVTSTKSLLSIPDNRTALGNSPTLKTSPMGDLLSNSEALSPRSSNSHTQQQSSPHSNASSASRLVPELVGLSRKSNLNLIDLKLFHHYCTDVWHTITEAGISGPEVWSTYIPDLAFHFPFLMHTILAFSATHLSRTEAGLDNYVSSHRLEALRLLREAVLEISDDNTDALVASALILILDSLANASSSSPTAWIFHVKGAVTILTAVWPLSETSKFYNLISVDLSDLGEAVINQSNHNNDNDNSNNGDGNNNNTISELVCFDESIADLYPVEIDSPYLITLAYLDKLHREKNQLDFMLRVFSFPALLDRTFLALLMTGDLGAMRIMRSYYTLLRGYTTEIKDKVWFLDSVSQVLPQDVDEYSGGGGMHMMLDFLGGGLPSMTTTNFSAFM
Outline: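 Yeast transcription factors carrying a GST tag, as full-length proteins or DNA-binding domains, were produced by PURExpress in vitro transcription/translation. About 100-200 nM protein was applied to universal all-10-mer Agilent arrays, double-stranded by primer extension on fresh or once-stripped slides. Bound protein was detected with fluorescent anti-GST, and scans were normalised with masliner. The Universal PBM Analysis Suite gave each ungapped eight-base word, pooled with its reverse complement, an E-score, a modified Wilcoxon-Mann-Whitney statistic.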

Sequence | PBM E-score
GCGGGGCC | -0.0825
ACTATCGC | 0.0663
CCCGGCCC | -0.183
TATAAAGA | -0.209
ACTAAGTC | -0.146
CTTCTTAC | 0.0182
GCCAATAA | -0.0882
AAAGCTGT | -0.108
CTCAACCA | -0.258
CGACCCCA | -0.0197
ACGGTTGG | 0.0347
ACCAGTAC | 0.0332
CACGCACC | -0.137
ACTAGGCT | -0.0611
CTGTCTGC | -0.267
CCTTCTAG | -0.158
AGGCTAGA | -0.154
ATTCGCTA | 0.158
AAACCGTA | 0.27
AATCATCC | 0.0233
AGGGCGCC | -0.161
CATACGGC | 0.3
GATATAGA | 0.0512
CTCATCAA | -0.109
CGATAGCA | 0.193

Sequence | PBM E-score
ATGATCTA | 0.0288
TAAACCTA | 0.00328
TCCGTAGA | -0.0285
CAGGCTTA | -0.245
CTGGGTAC | 0.174
AGTGGAAC | -0.0542
ACGGTAGG | -0.0294
AGGTCACT | -0.061
AGCGAACC | 0.18
TACCGAGA | 0.155
CAGACCAC | -0.238
GACTCAGA | -0.188
AATTTGAC | 0.0442
AAGCCCCG | -0.152
TTGAGCAA | -0.0756
GAGTACGC | -0.0338
GCAGAGAC | -0.357
ACTGCATC | 0.0594
CGGTTAAA | 0.18
GAGGTTGA | -0.0744
ATTATAAA | 0.172
CCTAGCGA | -0.192
AGGGAGGC | 0.0703
ACTCGCGG | 0.0816
ATGTCACG | 0.0203

Sequence | PBM E-score
CGATGATC | 0.154
AAGACGAG | 0.108
GAGGCAAA | -0.073
GACGGTGC | 0.0887
AGCGTTGA | -0.00877
GTGGCCAC | -0.0328
ATGAGGTG | -0.127
TGGACACA | -0.16
GCAGGGTA | -0.187
AATCCCTG | -0.196
ATCGCTCG | 0.195
ACGATAAC | 0.291
ACTACACT | -0.0856
TTTATAAA | 0.0727
ACTGGAAC | 0.141
AGTCGATG | 0.0205
AAGCCAGT | -0.0794
CAGCGAAG | -0.148
GACCTCAA | -0.231
CCCACCGC | 0.0306
ATCTCCTG | 0.0724
GCTCGAAA | -0.0416
ATTGTTCG | 0.26
GCACGCCA | -0.225
CAACCGAG | 0.265

Sequence | PBM E-score
GCGGCGCC | 0.0346
TCTCTAAA | -0.2
ATAGAGGC | -0.0274
CCATATGA | -0.232
ATTCAGGA | -0.0146
AGTATCGC | 0.148
CTTCACGA | -0.139
GCATGGTA | -0.0591
AAAGAACT | -0.0427
CTTTTCGA | -0.00257
GTATCGAA | 0.161
TATTCGCA | 0.162
CGAACAAA | 0.2
TCTGCCCA | -0.226
AGTGCGAT | 0.136
GGTTCAGA | -0.172
GGTTTTGA | -0.124
CTTTTGGA | -0.213
AGAGGACC | -0.0852
TCAATAAA | 0.00418
CCGATACC | 0.0916
TCCAGAGA | -0.332
CCCTCACA | -0.178
ACCATCTC | 0.0104
CCTCCTGC | -0.32

Sequence | PBM E-score
CGCATTAA | 0.0561
AACCTTGG | -0.202
CAACCCAG | -0.252
CTGGACAA | -0.161
CGACAAAA | 0.149
ACCACCGA | 0.0206
AATCGGTA | 0.211
AGTTGGAA | -0.103
TCACCTAA | -0.0233
GAATGTGA | 0.0145
CATTCGCA | 0.0842
GAGAGCTC | -0.0487
AGATCCAG | -0.136
ATCAGTTC | 0.145
CTCCACTA | -0.0503
AATCGCGT | 0.12
AGTCGCAA | 0.156
ATTAATAG | -0.0113
CCCACCAA | 0.00378
AAGGCCCT | -0.24
CTCAAAGC | -0.119
ACCTTAGC | -0.242
CTAGAACA | -0.0457
CCGTAAGA | 0.164
AACCCCGA | -0.202

Sequence | PBM E-score
TGAGCGAA | 0.268
GGGCCCCC | -0.299
AGCGTACG | 0.351
AGGGTCAT | -0.101
AACGTCGT | 0.37
GTGTAGTA | 0.0105
CTGGCTGA | -0.173
AGGTAGGA | -0.223
GACCTAAA | 0.202
ACACGATA | 0.152
GAAAGCAA | 0.156
TGGTCCAA | -0.233
CTAGGGAG | -0.147
AAGTGCCA | -0.157
GTTGTGGA | 0.0197
GGATGCAA | -0.0722
CGAAAAAC | 0.205
CCCGTCCC | -0.203
CAAGGCTC | -0.267
GTAACTGA | -0.0854
CGAGCATA | 0.217
CATTACAA | -0.00807
AAACTGGA | -0.124
CAGTATGG | 0.0519
TCAACCGA | 0.24

Sequence | PBM E-score
CCACAGTC | -0.189
CAGCGTAA | 0.0696
CGATCGTC | 0.104
AAACATAT | 0.185
CCGTGAGC | -0.134
ACCGTTCC | 0.434
AGAGACGA | 0.121
GCAGTGGC | -0.119
CACCAGTA | -0.342
ATAGGGGC | -0.237
GAACTGGC | -0.125
AGAAGAGC | -0.129
CCGAATCG | 0.206
AGACCACA | -0.157
ACTACGCG | 0.0858
AAACGTCG | 0.318
AATTATGT | -0.118
AGATCGCA | 0.121
AACAGTCC | -0.255
AGGAAGCG | 0.121
GGCGGGCA | -0.264
ACGGACCT | 0.164
